Experimental data as given in article PMC6919601, “Identification of Plasmodium dipeptidyl aminopeptidase allosteric inhibitors by high throughput screening” (PLoS ONE, 2019).
In all, about 110,000 compounds went through this assay and about 230 (0.21%) showed an effect of 50% or more. Some of the results follow.

Molecular target: DPAP1 (Plasmodium falciparum, UniProt Q8IIJ9)
Assay: primary screen, percent inhibition; read by cleavage of a fluorogenic dipeptide substrate; higher = more effect of the substance
Design: species or system P. falciparum D10 trophozoite lysates; single well
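Note: 30 min substrate incubation versus DMSO and 10 µM JCP410 controls.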

Sequence of DPAP1 (Q8IIJ9 whole entry, looked up): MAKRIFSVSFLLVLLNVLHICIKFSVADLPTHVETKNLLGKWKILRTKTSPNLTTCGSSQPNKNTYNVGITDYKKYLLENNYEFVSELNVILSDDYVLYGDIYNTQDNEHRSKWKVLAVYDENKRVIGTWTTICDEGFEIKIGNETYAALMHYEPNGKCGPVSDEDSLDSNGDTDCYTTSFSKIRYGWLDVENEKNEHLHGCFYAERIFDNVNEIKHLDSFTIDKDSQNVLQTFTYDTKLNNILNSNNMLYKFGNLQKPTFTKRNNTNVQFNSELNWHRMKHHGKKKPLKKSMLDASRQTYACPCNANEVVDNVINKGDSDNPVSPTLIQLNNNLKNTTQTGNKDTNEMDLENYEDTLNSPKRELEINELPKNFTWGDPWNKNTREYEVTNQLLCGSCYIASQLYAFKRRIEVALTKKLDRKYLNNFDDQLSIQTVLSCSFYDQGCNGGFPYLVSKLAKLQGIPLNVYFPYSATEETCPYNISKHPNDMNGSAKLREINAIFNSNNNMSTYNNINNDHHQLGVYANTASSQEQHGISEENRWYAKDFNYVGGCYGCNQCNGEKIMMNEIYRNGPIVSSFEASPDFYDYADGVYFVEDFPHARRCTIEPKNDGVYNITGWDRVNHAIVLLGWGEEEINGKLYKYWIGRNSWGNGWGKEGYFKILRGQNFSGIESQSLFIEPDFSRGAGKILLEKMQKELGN

| Structure (SMILES) | % Inhibition @ 10 uM [%] |
| --- | --- |
| O=C1OC(c2ccc(F)cc2)=C/C1=C/c1ccc(O)cc1 | 6.58 |
| CN1C(=O)/C(=C/c2cccc(Br)c2)S/C1=N/c1ccc(C(=O)O)cc1 | 0.0504 |
| CCOc1ccc(-c2csc(/C(C#N)=C/c3ccccc3OC)n2)cc1 | 2.13 |
| Cc1ccc(CNC(=O)c2ccc(CNc3c(N4CCC(C)CC4)c(=O)c3=O)cc2)cc1 | 2.76 |
| COc1cc(C2C3=C(O)CC(C)(C)CC3=NC3=C2C(=O)CC(C)(C)C3)cc(Cl)c1O (centres unmarked) | -1.3 |
| COc1ccc(N(CC(=O)Nc2cccc(Br)c2)S(C)(=O)=O)cc1OC | -5.13 |
| CC(C)(C)C1CCc2c(sc(NC(=O)c3ccccc3F)c2C(=O)O)C1 (centres unmarked) | -1.4 |
| CC(C)NC(=O)c1ccc(Cn2c(SCc3ccccc3F)nc3cccnc32)cc1 | 4.67 |
| N#CC1=C(N)Oc2c(c(O)nc3ccccc23)C1c1ccc(Br)cc1 (centres unmarked) | 4.67 |
| Cc1cc(C)c(S(=O)(=O)Nc2cccc(F)c2)c(C)c1 | 2.4 |
| CSc1ccc(S(=O)(=O)N(CC(=O)NCc2ccccn2)c2ccc(C)cc2)cc1 | -4.49 |
| COc1cc2oc3ccccc3c2cc1N(CC(=O)N(C)C)S(=O)(=O)c1ccccc1 | -3.34 |
| N#CCNC(=O)[C@H](CC1CCCCC1)NC(=O)OCC1CCCCC1 | -5.21 |
| COc1ccc(S(=O)(=O)n2nc(C)c(Sc3ccccc3)c2C)cc1 | 2.43 |
| CCO/C(O)=C1\C(C)=NC2=C(C(=O)CC(c3ccccc3)C2)C1c1cccc(O)c1 (centres unmarked) | 1.67 |
| Cc1cc(C)c2nc(N3CCC(C(=O)NCCCOC(C)C)CC3)sc2c1 | 6.46 |
| Cc1cccc(NS(=O)(=O)c2ccc3ccccc3c2)n1 | 1.04 |
| CC1CC(C)CN(CCCNc2cnnc3c(Cl)cccc23)C1 (centres unmarked) | 12 |
| CCOc1ccc(CNC(=O)C2=C(C)C(=O)OC23CCCCCC3)cc1 | 2.25 |
| CC1=NN(c2ccc(Br)cc2)C(=O)CC1 | -2.51 |
| O=C(O)C(O)(c1ccccc1)C1CCCCC1 (centres unmarked) | 2.94 |
| CCC[C@H](NC(=O)C1(NC(=O)c2ccncc2)CCCCC1)C(=O)c1nc2ccccc2o1 | 0.173 |

| Structure (SMILES) | % Inhibition @ 10 uM [%] |
| --- | --- |
| COc1cccc(C(=O)N2N=C3CCC(C)CC3C2(O)C(F)(F)F)c1 (centres unmarked) | -0.564 |
| CCSc1nnnn1-c1cccc(C(=O)O)c1 | -5.51 |
| CCO/C(O)=C1/C(C)=Nc2nc(SCc3ccccc3C)nn2C1c1ccc(OC)c(OC)c1 (centres unmarked) | 3.61 |
| Cc1ccc(Cn2c(=O)n(CCc3ccccc3)c(=O)c3cccnc32)cc1 | -1.66 |
| COc1ccc(CC(C)NC2CCCCC2C)cc1OC (centres unmarked) | -3.8 |
| CC1(C)C=C(/C=C/c2ccccc2)NC(=O)N1 | 1.76 |
| COC(=O)C1=C(C)NC(=O)CC1c1ccccc1OC (centres unmarked) | 0.219 |
| O=C1CC(N2CCCCCC2)C(=O)N1c1cccc(Cl)c1 (centres unmarked) | -3.91 |
| CCc1ccccc1/N=C(\N)Nc1nc(C)cc(C)n1 | 2.36 |
| Cc1cc(=O)n(C(C)C(=O)NCc2ccccc2)c2c1c(C)nn2-c1ccccc1 (centres unmarked) | 1.63 |
| CN(C)C(c1ccc(Cl)cc1)c1nnnn1C(/C=C\c1ccc(Cl)cc1Cl)C(C)(C)C (centres unmarked) | -11 |
| COc1ccccc1/C=C(\C#N)c1nc(-c2ccc(Br)cc2)cs1 | -0.591 |
| CC(C)OCc1cc(CN2CCN(C)CC2)c(O)c2ncccc12 | -0.551 |
| COc1cccc(C2=NOC(C(=O)NCC(C)C)C2)c1 (centres unmarked) | 1.42 |
| COc1ccc(N2CCN(Cc3cccc(C)c3)CC2)cc1 | 2.47 |
| COCCCNC(=O)C1CCN(S(=O)(=O)N2CCC3(CC2)OCCO3)CC1 | 5.35 |
| Cc1ccc2[nH]c(NCCCO)nc2c1 | 0.162 |
| CC(C)(C)NC(=O)Cn1c(SCc2cc3c(cc2Br)OCO3)nc2ccccc21 | -0.0108 |
| CCCCN(Cc1ccco1)S(=O)(=O)c1c[nH]c(C(=O)OC)c1 | 1.78 |
| O=C1c2cccc3cccc(c23)C(=O)N1c1nccs1 | 0.0265 |
| COC(=O)c1cc(-c2ccccc2)c2c(=O)n(C)c(=O)n(C)c2n1 | -0.551 |
| CCOc1ccc(C(=O)Nc2c(C)nc3ncnn3c2O)cc1OCC | 2 |

| Structure (SMILES) | % Inhibition @ 10 uM [%] |
| --- | --- |
| CCC(C(=O)Nc1cc(C)cc(C)n1)c1ccccc1 (centres unmarked) | -2.99 |
| CCOc1ccc(C2C(C(=O)Nc3cccnc3)=C(C)Nc3nc(CCCO)nn32)cc1 (centres unmarked) | -10.2 |
| COc1ccc(CNC(=O)Cc2c(C)c3c(O)cc(C)cc3oc2=O)cc1OC | 0.895 |
| CCCOc1c(Br)cc(C=C2C(=O)NC(=O)NC2=O)cc1OCC | 25.7 |
| Fc1ccc(N2CCN(Cc3ccc(Br)s3)CC2)cc1 | -1.92 |
| CC(C)(C)OC(=O)N1CCC(c2c(C(=O)NCCc3ccsc3)cnn2-c2cccc(F)c2)CC1 | 1.75 |
| CN(Cc1ccccc1)Cc1ccc(Br)o1 | 1.08 |
| O=C(O)c1cnc2cc3c(cc2c1O)OCCO3 | -1.2 |
| CCCCSc1nc2c3cc(OC)ccc3n(C)c2c(=O)n1CCO | -1.37 |
| Cc1ccccc1N1CCN(C(=O)c2ccccc2NC(=O)C2CC=CCC2C(=O)O)CC1 (centres unmarked) | -1.61 |
| CC(C)CCNC(=O)c1ccc(-n2cnc3cccnc32)cc1 | -2.92 |
| O=C(Nc1nc2c(Cl)cccc2s1)c1ccccc1 | -2.32 |
| CC(C(=O)NCc1ccc(F)cc1)n1ccc2cc(S(=O)(=O)N3CCCC3)ccc21 (centres unmarked) | -4.38 |
| O=C(NCc1ccccc1)C1CC(c2ccccc2F)=NO1 (centres unmarked) | -3.94 |
| COc1ccc(C(=O)Nc2nc(-c3ccccc3)cs2)cc1OC | 24 |
| Cc1cc(N)nn1Cc1cccc2ccccc12 | -5.53 |
| Cc1cccc(OCC(=O)Nc2cccc(Cl)c2C)c1 | -7.28 |
| CCOc1ccccc1C(=O)NCc1ccc(C)cc1 | -5.6 |
| O=C(NCCN1CCOCC1)c1cccc(Br)c1 | 3.48 |
| COc1ccc(C2CC3=Nc4ccccc4NC(c4ccc(O)cc4)C3=C(O)C2)cc1 (centres unmarked) | 5.59 |
| CCCNC(=O)c1c(CC)c(-c2ccccc2)nc2ccccc12 | -2.26 |
